From patent US20240277738A1, “GAMETOCYTOCIDAL COMPOUND” (Eberhard Karls Universität Tübingen Medizinische Fakultãt, priority 2021, published 2024) come the findings set out here.

Structures can show the parent of a compound that is named as a salt. Where two headings read alike, the source gives them in different places.

Assay [1] relates to Plasmodium knowlesi strain A1-H.1. Put plainly: microbe, parasite or virus in culture.
Assay [2] shares this test system. The note with it: read-out: IC50, 6 day-assays, A1-H.1; P. knowlesi A1-H.1, 6 days of incubation.
Setting [3] is: 72 h, read-out: IC50, 3 day-assays, A1-H.1.
[4] abbreviates: 144 h, read-out: IC50, 6 day-assays, A1-H.1.

On to `CN(C)[C@@H]1C(O)=C(C(N)=O)C(=O)[C@@]2(O)C(O)=C3C(=O)c4c(O)ccc(Cl)c4[C@@H](O)[C@H]3C[C@@H]12` [Demeclocycline], for which the IC50 is more than 18 µM in assay [1] (setting [3]) and 0.386 ± 0.262 µM in assay [1] (setting [4]).

In the case of `C=C1c2c(Cl)ccc(O)c2C(=O)C2=C(O)[C@]3(O)C(=O)C(C(N)=O)=C(O)[C@@H](N(C)C)[C@@H]3[C@@H](O)[C@H]12` [Meclocycline], the figures for the IC50 in assay [1] (setting [3]) and in assay [1] (setting [4]) were 7.69 ± 4.39 µM and 1.49 ± 0.547 µM, respectively.

On to `CN(C)c1ccc(O)c2c1C[C@H]1C[C@H]3[C@H](N(C)C)C(O)=C(C(N)=O)C(=O)[C@@]3(O)C(O)=C1C2=O` [Minocycline, Minocycline hydrochloride], for which the values for the IC50 in assay [1] (setting [3]) and in assay [1] (setting [4]) were 3.13 ± 1.65 µM and 0.146 ± 0.172 µM, respectively.

`C[C@H]1c2cccc(O)c2C(=O)C2=C(O)[C@]3(O)C(=O)C(C(N)=O)=C(O)[C@@H](N(C)C)[C@@H]3[C@@H](O)[C@@H]21` [Doxycycline, Doxycycline Hyclate]: the results for the IC50 in assay [1] (setting [3]) and in assay [1] (setting [4]) were 1.85 ± 1.03 µM and 0.663 ± 0.508 µM, respectively.

For `CC(C)[C@@H](N)C(=O)O[C@H](C)[C@@H]1C/C=C\CC[C@H](O)C(C)(C)[C@@H]2CC[C@@H](C)[C@@]3(O2)O[B-]24O[C@@H](C(=O)O1)[C@]1(O[C@@H](CC[C@H]1C)C(C)(C)[C@H](O)CCC[C@@H]1C[C@H](OC(=O)[C@@H]3O2)[C@@H](C)O1)O4.[H+]` [Boromycin], the IC50 in assay [2] came to 0.0034 ± 0.0014 µM.

Consider `CN(C)[C@@H]1C(O)=C(C(=O)NCNCCCC[C@H](N)C(=O)O)C(=O)[C@@]2(O)C(O)=C3C(=O)c4c(O)cccc4[C@@](C)(O)[C@H]3C[C@@H]12` [Lymecycline], for which the values for the concentration for half-maximal inhibition (IC50) in assay [1] (setting [3]) and in assay [1] (setting [4]) were 15.7 ± 5.35 µM and 1.15 ± 0.226 µM, respectively.

With `CN(C)c1cc(CNCC(C)(C)C)c(O)c2c1C[C@H]1C[C@H]3[C@H](N(C)C)C(O)=C(C(N)=O)C(=O)[C@@]3(O)C(O)=C1C2=O` [Omadacycline], the IC50 in assay [1] (setting [3]) was 1.16 ± 0.339 µM; in assay [1] (setting [4]), 0.285 ± 0.057 µM.

With `CON(C)Cc1ccc(O)c2c1C[C@H]1C[C@H]3[C@H](N(C)C)C(O)=C(C(N)=O)C(=O)[C@@]3(O)C(O)=C1C2=O` [Sarecycline, Sarecycline hydrochloride], the half-maximal inhibitory concentration (IC50) is 1.87 ± 1.01 µM in assay [1] (setting [3]) and 0.92 ± 0.512 µM in assay [1] (setting [4]).

As to `CN(C)[C@@H]1C(O)=C(C(N)=O)C(=O)[C@@]2(O)C(O)=C3C(=O)c4c(O)ccc(Cl)c4[C@@](C)(O)[C@H]3C[C@@H]12` [Chlortetracycline], the IC50 in assay [1] (setting [3]) is more than 18 µM; in assay [1] (setting [4]), 8.31 ± 2.63 µM.

Consider `C=C1c2cccc(O)c2C(=O)C2=C(O)[C@]3(O)C(=O)C(C(N)=O)=C(O)[C@@H](N(C)C)[C@@H]3[C@@H](O)[C@H]12` [Methacycline], for which the results for the IC50 in assay [1] (setting [3]) and in assay [1] (setting [4]) were more than 18 µM and 2.99 ± 0.948 µM, respectively.

As for `CCC[C@@H]1C[C@@H](C(=O)N[C@@H]([C@H]2O[C@H](SC)[C@H](O)[C@@H](O)[C@H]2O)[C@H](C)Cl)N(C)C1` [Clindamycin], the figures for the IC50 in assay [1] (setting [3]) and in assay [1] (setting [4]) were 0.0771 ± 0.0064 µM and 0.0147 ± 0.012 µM, respectively.

Regarding `CCN(CC)CCCC(C)Nc1ccnc2cc(Cl)ccc12` (stereo not shown) [Chloroquine, Chloroquine diphosphate], the values for the IC50 in assay [1] (setting [3]) and in assay [1] (setting [4]) were 0.0145 ± 0.0093 µM and 0.017 ± 0.011 µM, respectively.

As for `CO[C@H]1C[C@H](O[C@H]2[C@H](C)[C@@H](O[C@@H]3O[C@H](C)C[C@H](N(C)C)[C@H]3OC(C)=O)[C@@H](C)C[C@@]3(CO3)C(=O)[C@H](C)[C@@H](OC(C)=O)[C@@H](C)[C@@H](C)OC(=O)[C@@H]2C)O[C@@H](C)[C@@H]1OC(C)=O` [Troleandomycin], the IC50 in assay [1] (setting [3]) was more than 18 µM; in assay [1] (setting [4]), 2.82 ± 1.97 µM.

Take `CO[C@@H]1[C@@H](O[C@@H]2O[C@H](C)[C@@H](O[C@H]3C[C@@](C)(O)[C@@H](OC(=O)CC(C)C)[C@H](C)O3)[C@H](N(C)C)[C@H]2O)[C@@H](CC=O)C[C@@H](C)[C@@H](O)/C=C/C=C/C[C@@H](C)OC(=O)C[C@H]1OC(C)=O` [Josamycin]: the IC50 was more than 18 µM in assay [1] (setting [3]) and 0.165 ± 0.147 µM in assay [1] (setting [4]).

On to `CN(C)[C@@H]1C(O)=C(C(N)=O)C(=O)[C@@]2(O)C(O)=C3C(=O)c4c(O)c(NC(=O)CN5CCCC5)cc(F)c4C[C@H]3C[C@@H]12` [Eravacycline], for which the IC50 in assay [1] (setting [3]) stood at 2.33 ± 1.52 µM; in assay [1] (setting [4]), 0.0125 ± 0.011 µM.

For the molecule `CO[C@H]1C[C@H](O[C@H]2[C@H](C)[C@@H](O[C@@H]3O[C@H](C)C[C@H](N(C)C)[C@H]3O)[C@@H](C)C[C@@]3(CO3)C(=O)[C@H](C)[C@@H](O)[C@@H](C)[C@@H](C)OC(=O)[C@@H]2C)O[C@@H](C)[C@@H]1O` [Oleandomycin], the results for the IC50 in assay [1] (setting [3]) and in assay [1] (setting [4]) were more than 18 µM and 3.92 ± 2.77 µM, respectively.
